The text below walks through data of ChEMBL document CHEMBL1201862, “PubChem BioAssay data set” (2004).

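Values below derive from 48-hour exposures of cells grown in 96-well plates, with endpoints linearly interpolated between the two concentrations bracketing the appropriate inhibition level. GI50: concentration for 50% inhibition of growth.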 Active and inactive are the calls of the source. Rule as the data show it: active = GI50 up to about 1.1 µM and inactive = higher.

The term GI50 denotes the concentration giving 50% growth inhibition.

This experiment has as its system NCI-H322M. Briefly: DTP human tumour cell line panel, 48 h.
On to `COc1cc2c(cc1OC)C(=O)N1CCCC1C(=O)S2` (centres undefined), for which the GI50 was inactive: > 100 µM. With `NNC(=O)CNc1cccc(Br)c1`, the GI50 is inactive: > 100 µM. Regarding `COc1cccc([C@H]2CC(=O)c3cc4c(cc3N2)OCO4)c1`, the concentration for 50% growth inhibition (GI50) was active: 0.537 µM. With `O=C1C=C(Nc2cccnc2)c2ccccc2C1=O`, the GI50 is inactive: 17.4 µM. Take `CN(C)CCn1c(CO)nc2c1c(=O)n(C)c(=O)n2C`: the GI50 is inactive: > 100 µM.

Consider `Cc1cc(C)nc(NS(=O)(=O)c2ccc(NC(=O)c3cccc4c(=O)c5ccccc5[nH]c34)cc2)n1`, for which the GI50 was inactive: 22.2 µM. Take `CC[S+]1C2=C(CC(C)(C)CC2=O)[N-]c2ccccc21` (centres undefined): the GI50 was inactive: > 100 µM.

With `NS(=O)(=O)c1nnc(/N=C(/CCC(=O)O)C(=O)O)s1`, the GI50 was inactive: > 100 µM. For the compound `CCOP(=O)(OCC)/C(C#N)=C/c1c[nH]c2ccccc12`, the GI50 was inactive: > 100 µM. Then `CC1CN=C(Nc2cccc(C(F)(F)F)c2)S1` (centres undefined), with inactive: 56.1 µM. Consider `CC1OC=CC(=O)C1O` (centres undefined), for which the GI50 is inactive: > 100 µM. `CC1(C)C/C(=N/O)c2c(nc3ccc4ccccc4c3c2-c2ccc(Cl)cc2)C1`: the GI50 was inactive: 66.8 µM. On to `CC1COC(C)(C)P(=O)(c2ccccc2)C1` (centres undefined), for which the GI50 is inactive: > 100 µM. On to `CCCCCCCCCCCCCCCC(=O)OCC1OC(OC)C2NP(=O)(N(CCCl)CCCl)OC1C2O` (centres undefined), for which the GI50 was inactive: 40.5 µM. Consider `N#CC(c1ccccc1)N(CCOCCOCCN(C(=O)c1cccc2ccccc12)C(C#N)c1ccccc1)C(=O)c1cccc2ccccc12` (centres undefined), for which the GI50 is inactive: > 100 µM. Consider `COc1cc([C@@H]2c3cc4c(cc3[C@H](OC3OC5COC(C(C)C)OC5C(O)C3O)C3COC(=O)[C@@H]32)OCO4)cc(OC)c1O` (some centres undefined), for which the GI50 was inactive: 14.1 µM.

In the case of `Cc1ccc(-c2cc(-c3ccc(Cl)cc3)nc(/N=C3\C(=O)N(CN4CCOCC4)c4ccc(Cl)cc43)n2)cc1`, the GI50 was inactive: 26.1 µM.

Consider `CN(C)C(=O)CC(C(=O)O)c1c[nH]c2ccccc12` (centres undefined), for which the GI50 is inactive: > 100 µM. As to `CN(C)CCNC(=O)c1cccc2c1Oc1cccc([N+](=O)[O-])c1O2`, the GI50 was inactive: 14.4 µM. As to `CC(C)N/C(=N\C#N)NS(=O)(=O)c1cnccc1Nc1ccc(Cl)cc1`, the GI50 was inactive: > 100 µM. With `Cc1cc2c(c(C(=O)NCCC(=O)O)c1)Oc1c(cc(C)cc1C(=O)NCCC(=O)O)S2`, the GI50 is inactive: > 100 µM. Turning to `CCNC(=S)N/N=C/c1cc(OC)ccc1O`, the GI50 was inactive: > 100 µM. On to `CC(C)OC(=O)Nc1c([N+](=O)[O-])cc(C(F)(F)F)cc1[N+](=O)[O-]`, for which the GI50 is inactive: > 100 µM. `COc1ccc(N2C(=O)CC(c3c[nH]c4ncccc34)C2=O)cc1` (centres undefined): the GI50 was inactive: > 100 µM.

In the case of `CCN(CC)c1ccc(/N=C2/C=CC(=O)c3ncccc32)c(C)c1`, the GI50 is inactive: 16.1 µM. As to `CSC1NC(c2ccc(Cl)cc2)=C(C#N)C(=O)N1C1OCC(OC(C)=O)C(OC(C)=O)C1OC(C)=O` (centres undefined), the GI50 is inactive: > 100 µM.

`N/C(=N\c1ccccc1)c1ccccc1N`: the GI50 is inactive: > 100 µM.

Consider `CCOc1cc2c(C(=O)CC)c(O)ccc2o1`, for which the GI50 is inactive: > 100 µM. In the case of `Cc1ccc(C)c(N2C(=O)C(=O)C(c3nc4ccccc4o3)C(=O)C2=O)c1`, the GI50 is inactive: > 100 µM. Regarding `C[N+](C)(C)CC(=O)N/N=C/c1oc(-c2c(O)ccc3ccccc23)c(-c2c(O)ccc3ccccc23)c1[N+](=O)[O-]`, the GI50 was inactive: 18.8 µM. `CC(O)C1(CNc2cc(Cl)nc(N)n2)CCCC1` (centres undefined): the GI50 was inactive: > 100 µM. The figure for `O=c1c2c(oc3ccccc13)-c1ccccc1OC2` is inactive: 31.5 µM; for `CC1(CCC2C=CCC2)CCCNC1=S` (centres undefined) it is inactive: > 10 µM; for `Cc1cc2nc3c(C#N)c4c(c(-c5ccc(Cl)cc5)n3c2cc1C)CCC4` it is inactive: 16.3 µM. For `O=C1c2ccccc2C(=O)[C@@]23O[C@@]12C1(Oc2cccc4cccc(c24)O1)[C@@H]1O[C@@H]1[C@@H]3O`, the GI50 is inactive: 16.5 µM.

For the compound `Cc1ccc(-n2cc([Si](C)(C)C)nn2)s1`, the GI50 is inactive: 89.7 µM. The figure for `CCOP(=O)(OCC)C(=C1C=C(C(C)(C)C)C(=O)C(C(C)(C)C)=C1)P(=O)(OCC)OCC` is inactive: > 10 µM; for `O=C1c2ccccc2C(=O)c2sc(Nc3cc(Cl)ccc3Cl)nc21` it is inactive: 14.8 µM. As to `CO/N=C(/C(=O)OC)c1ccccc1COc1ccccc1C(F)(F)F`, the GI50 is inactive: 57.1 µM.

As to `Cc1ccccc1C(=O)N/N=C/c1ccc(Sc2nccn2C)c([N+](=O)[O-])c1`, the GI50 was inactive: > 100 µM. Take `CCOC(=O)c1[nH]cc(C)c1-c1ccc2c(-c3ccccc3)nc3ccccc3n12`: the GI50 was inactive: 5.51 µM.

For `CC(C(=O)c1ccccc1)C1(O)C(=O)Nc2ccc(Cl)cc21` (centres undefined), the GI50 was inactive: > 100 µM. As for `CCOC(=O)[C@@H]1ON2O[C@@H](OC3CCCCC3c3ccccc3)C[C@H]3OC(=O)[C@@H]1C32` (some centres undefined), the GI50 is inactive: > 100 µM.

As for `CC(C)c1nc(Cl)nc(Cl)c1Cl`, the GI50 was active: 0.931 µM. Then `O=[N+]([O-])c1cccc2nccc(NCCN3CCOCC3)c12`, with inactive: 10.4 µM; and `Cc1cc(S(=O)(=O)Nc2nc(-c3ccccn3)n[nH]2)c(S)cc1Cl`, with inactive: 10.5 µM; and `COc1ccc(/C=C2\CCCC(CN(C)C)C2=O)cc1` (centres undefined), with inactive: 16.8 µM. As for `CC(C)CCC[C@@H](C)[C@H]1CC[C@H]2[C@@H]3CC=C4C[C@@H](OC(=O)c5cccc6c(=O)c7ccccc7[nH]c56)CC[C@]4(C)[C@H]3CC[C@]12C`, the GI50 is inactive: > 75 µM.

Turning to `N#CC1(C2CC(=O)N(c3ccccc3)C2=O)CCCCC1=O` (centres undefined), the GI50 was inactive: > 100 µM. As to `CCSc1nc(C)nc2c1sc1nc3ccccc3n12`, the GI50 was inactive: > 100 µM.

Regarding `CC(=O)/N=C1/N(/C=C2\C(=O)Oc3ccccc3C2=O)C(=O)/C(=C/c2cccc(Cl)c2Cl)N1C`, the GI50 was inactive: 35.2 µM. Consider `COc1cc(/C=C\c2ccncc2)cc(OC)c1OC`, for which the GI50 is inactive: > 100 µM. Then `OC1(c2ccc(Cl)cc2)C(N2CCCC2)c2ccccc2C2=NCCN21` (centres undefined), with inactive: 18.6 µM; and `C1CCC(OC2CSC2)OC1` (centres undefined), with inactive: > 100 µM; and `CC(=O)N1C/C(=C\c2ccccc2)C(=O)/C(=C/c2ccccc2)C1`, with inactive: 17.7 µM. As for `Cc1[nH]c(=O)[nH]c(=O)c1/C=C/C(=O)NC(CO)C[S+]([O-])C[S+](C)[O-]` (centres undefined), the GI50 was inactive: 11.4 µM. On to `COc1ccc(-c2nc3ncccn3c2-c2ccc(SC)cc2)cc1`, for which the GI50 is inactive: 1.83 µM. Turning to `CC1OC(=O)C2CC3CCCCC3C(/C=C/C3CCCC(C)N3C)C12` (centres undefined), the GI50 was inactive: > 100 µM.

Turning to `CCOC(=O)c1[nH]cc(C)c1-c1cccn1-c1ccc(Cl)cc1[N+](=O)[O-]`, the GI50 was inactive: 37.3 µM. As to `CC1=C(C(=O)Nc2cc(=O)n(C)c(=O)n2C)C(c2ccco2)C(C(=O)Nc2cc(=O)n(C)c(=O)n2C)=C(C)N1`, the GI50 is inactive: > 100 µM. For `COc1ccc(/C=C(\Cl)c2ccc(OC)c(OC)c2)cc1OC`, the GI50 is inactive: > 100 µM. Take `CC12CCC([C@H](C(O)C3CCCCC3)C1=O)C2(C)C` (some centres undefined): the GI50 was inactive: > 100 µM. Then `COC(=O)CCc1ccc2c(c1)C(=O)CC2`, with inactive: > 100 µM; and `CC1(C)N=C(/C(Cl)=[N+](/[O-])C(=O)c2ccc(F)cc2)C(C)(C)N1O`, with inactive: 25.8 µM. Take `S=C(/N=c1\sc(Nc2ccc(Cl)cc2)nc2sc3c(c12)CCN(N1CCc2c(sc4nc(Nc5ccc(Cl)cc5)s/c(=N\C(=S)Nc5ccc(Cl)cc5)c24)C1)C3)Nc1ccc(Cl)cc1`: the GI50 was inactive: 23.9 µM. For the compound `COc1ccc(C2N(c3ccc(C)c(N=C=O)c3)C(=O)N3C(c4ccc(OC)cc4)N(c4ccc(C)c(N=C=O)c4)C(=O)N23)cc1` (centres undefined), the GI50 is inactive: > 100 µM.

Consider `CC(=O)NNc1nc(C)c(C(=O)/C=C/c2ccc(/C=C/C(=O)c3sc(NNC(C)=O)nc3C)cc2)s1`, for which the GI50 is inactive: > 100 µM. The figure for `O=[Se](O)O` is inactive: 1.6 µM; for `CC(=O)Nc1ccc(/C=C/c2ccc(NC(=O)Nc3ccc(/C=C/c4ccc(NC(C)=O)cc4S(=O)(=O)O)c(S(=O)(=O)O)c3)cc2S(=O)(=O)O)c(S(=O)(=O)O)c1` it is inactive: > 71.6 µM; for `CCCCCCCCCCCCCCCCOP(=O)(O)OP(=O)(O)OCC1OC(n2ccc(N)nc2=O)CC1O` (centres undefined) it is inactive: > 100 µM. As for `CC1=C[C@@H](C)C[C@]2(C)CC[C@H](O2)[C@]23CC[C@](C(=O)O)(C[C@H](O2)[C@@H]2O[C@@](C)(CC2=O)[C@@H](O)[C@H]2CC[C@@]4(CCC[C@@H](O4)[C@H](C)C(=O)O[C@H]4C[C@H]([C@]5(O)OCC[C@H](C)[C@@H]5O)O[C@H]4C=C1)O2)O3`, the GI50 was inactive: > 10 µM.

With `CC(=O)O[C@H]1C(=O)[C@@]2(C)[C@H]([C@H](OC(=O)c3ccccc3)[C@]3(O)C[C@H](OC(=O)[C@H](O)[C@@H](NC(=O)CC(C)C)c4ccccc4)C(C)=C1C3(C)C)[C@]1(OC(C)=O)CO[C@@H]1C[C@@H]2O`, the 50% growth inhibitory concentration (GI50) is active: 0.0304 µM. As for `CC(OP(=O)(O)O)C(N)C(=O)O` (centres undefined), the GI50 was inactive: > 100 µM.

For the compound `Cc1ccc(C(=O)C#Cc2cnc(O)nc2O)cc1`, the GI50 was inactive: 15.4 µM. Regarding `CCCCCCCCC/C=C1\CC(CO)(COC(=O)C2CCCCC2)OC1=O` (centres undefined), the 50% growth inhibitory concentration (GI50) is active: 0.236 µM.

Regarding `Cc1c2cc[n+](C)cc2c(C)c2c1[nH]c1ccccc12`, the 50% growth inhibitory concentration (GI50) was active: 1.06 µM. Turning to `O=C(NCCCCNCCCNC(=O)c1ccccc1)c1ccccc1`, the GI50 is inactive: > 100 µM. Consider `O=[N+]([O-])c1nccn1CC(O)CN1CC1` (centres undefined), for which the GI50 was inactive: > 100 µM. With `COc1ccc(C2CC(=O)c3c(O)cc(O)cc3O2)cc1O` (centres undefined), the GI50 was inactive: > 100 µM.
